About 5,000 (1.2%) of roughly 410,000 compounds were called active. The inconclusive results got no clear call from the source; some entries with a clear call stand among them for comparison. The call rests on the fitted dose curve; in most records, active means well fitted inhibition curve with a large enough effect; inconclusive means small, poorly fitted or top-dose-only effect; inactive means no such curve, though single readings can be large or run the other way. Potencies of inconclusive entries are doubtful fits and often do not repeat.
Experiment: qHTS for Inhibitors of TGF-b; further: nearly all actives have a fitted effect of over 65% in size
Settings: HepG2 CAGA-GFP TGF-b/SMAD3 reporter, GFP fluorescence, 18 h, TGF-beta stimulated, 500 pg/mL final; series mostly up to 46.1 µM; activity, negative = inhibition: at the top concentration
Summary of the method: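 Inhibition was scored as loss of TGF-beta-induced (500 pg/mL final, 18 hours, 37 degrees C) GFP in HEPG2 cells carrying a CAGA-GFP reporter, in DMEM with 1% FBS. Well GFP was summed per cell; Activity was normalised to unstimulated and stimulated DMSO wells, then concentration-response fitting.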
On the % scale 0 is the no-effect control and ±100 the full control effect; potency means the concentration at half of the fitted maximal effect; tags describe the fitted curve by direction and shape.

For `COC(=O)Nc1ccc(S(=O)(=O)N2CCN(CCN3C(=O)C4C5C=CC(C5)C4C3=O)CC2)cc1` (configuration not stated), which Potency is on record?
The Potency was inconclusive: 0.501 µM [inhibitor, partial curve, poor fit].

For `CCc1cc(C(=O)N/N=C/c2c(C)[nH]c3ccccc23)cs1`, which Potency is on record?
The Potency was inconclusive: 17.8 µM [inhibitor, single point].

With `CCC1=Nc2cc(C(=O)NCc3ccccc3Cl)ccc2Sc2ccc(C)cc21` as the molecule, how does the Potency read?
The Potency was inconclusive: 5.01 µM [inhibitor, full curve].

For `O=C(NC(=S)NC1CCCCC1)c1ccccc1[N+](=O)[O-]`, which Potency is on record?
The Potency was inconclusive: 7.94 µM [inhibitor, partial curve, poor fit].

For `CCCC(=O)N1CCCC(c2cc(C(=O)NCc3ccccc3)no2)C1` (configuration not stated), which “activity, negative = inhibition” value is on record?
Its value is inactive: 35.5%.

With `COCCn1c(SCC(=O)NC(=O)Cc2ccccc2)nc2ccccc2c1=O` as the molecule, how does the “activity, negative = inhibition” value read?
Its value is inactive: 10.6%.

With `COc1ccc(OC)c(NC(=O)CSc2nc3n[nH]c(C)c3c(=N)n2-c2cccc(Cl)c2C)c1` as the molecule, how does the Potency read?
Its Potency is inconclusive: 25.1 µM [inhibitor, single point].

Which Potency does the source give for `COc1ccc(S(=O)(=O)N2CCN(CCOc3ccc(Br)cc3)CC2)cc1OC` here?
Its Potency is inconclusive: 15.8 µM [inhibitor, partial curve, poor fit].

For `CN1CCN(CC(O)(c2ccc(Cl)cc2)c2ccc(Cl)cc2)CC1`, which Potency is on record?
The Potency was inconclusive: 12.6 µM [inhibitor, single point].

Which Potency does the source give for `O=C(NCCc1cccs1)C1CC(c2c(Cl)cccc2Cl)=NO1` (configuration not stated) here?
Its Potency is inconclusive: 7.94 µM [inhibitor, partial curve, poor fit].

With `CC(C)CC(=O)NC(=S)Nc1ccccc1F` as the molecule, how does the Potency read?
The Potency was inconclusive: 11.2 µM [inhibitor, single point].

For `CC1(C)Cc2ccccc2C(/C(=N\Nc2cccc(Cl)c2)C(N)=O)=N1`, which Potency is on record?
Its Potency is inconclusive: 25.1 µM [inhibitor, single point].

With `CC1=NOC(=O)/C1=C\c1ccc(-c2ccc(Br)cc2)o1` as the molecule, how does the Potency read?
The Potency was inconclusive: 22.4 µM [inhibitor, single point].

For `O=S1(=O)C=C(Sc2nc3ccccc3s2)c2ccccc21`, which Potency is on record?
The Potency was active: 2.82 µM.

For `Cc1ccc(Nc2nnc(SCC(=O)c3c(N)n(C4CC4)c(=O)[nH]c3=O)s2)cc1C`, which Potency is on record?
The Potency was inconclusive: 31.6 µM [inhibitor, single point].

With `CCCN(C(=O)c1cn(-c2ccccc2)nc1-c1ccc(OC)cc1)C1CCS(=O)(=O)C1` (configuration not stated) as the molecule, how does the “activity, negative = inhibition” value read?
Its value is inactive: 2.2%.

Which Potency does the source give for `Cc1ccc(S(=O)(=O)Nc2cccc(C(=O)NCc3cccnc3)c2)cc1F` here?
The Potency was inconclusive: 17.8 µM [inhibitor, single point].

For `Cc1ccc(NC(=O)[C@H](NC(=O)[C@@H]2Cc3ccccc3CN2)c2ccccc2)c(C)c1`, which “activity, negative = inhibition” value is on record?
Its value is inactive: -13.7%.

With `Cc1ccc(C)c(N2CCN(C(=O)C(Cc3ccccc3)n3cccc3)CC2)c1` (configuration not stated) as the molecule, how does the Potency read?
Its Potency is inconclusive: 35.5 µM [inhibitor, single point].

Which “activity, negative = inhibition” value does the source give for `O=C(/C=C/c1ccc(Cl)cc1)NC1CC2CCC1C2` (configuration not stated) here?
Its value is inactive: -7.42%.

Which Potency does the source give for `Cc1nc(SCC(=O)NC(C)(C)C)c2c(-c3cccs3)csc2n1` here?
Its Potency is inconclusive: 12.6 µM [inhibitor, single point].

With `COc1ccc(CNC(=O)Cn2c(=O)nc(-c3ccccc3F)c3cc(Cl)ccc32)cc1OC` as the molecule, how does the “activity, negative = inhibition” value read?
Its value is inactive: -5.79%.

Which “activity, negative = inhibition” value does the source give for `COc1cc(/C=C2\SC(=S)N(Nc3ccccc3)C2=O)ccc1O` here?
The value was inactive: 0%.

With `C=CC[C@H](CC(=O)N(CCO)Cc1ccccc1)C(=O)N[C@@H](C)COC(=O)[C@H](CC=C)CC(=O)OC(C)(C)C` as the molecule, how does the Potency read?
The Potency was inconclusive: 1.58 µM [inhibitor, partial curve, poor fit].

Which “activity, negative = inhibition” value does the source give for `Cc1cc(Cl)ccc1C(=O)C1CCCN(C(=O)c2cnsn2)C1` (configuration not stated) here?
Its value is inactive: -0.755%.

Which Potency does the source give for `CC1(C)[C@@H](O)CC[C@]2(C)C3C(O)C=C4[C@H]5C[C@@](C)(CO)CC[C@]5(C)CC[C@]4(C)[C@]3(C)CC[C@@H]12` (some centres not stated) here?
Its Potency is inconclusive: 35.5 µM [inhibitor, single point].

Which Potency does the source give for `COc1ccccc1-c1cc(N)n(S(=O)(=O)c2ccc(F)c(C)c2)n1` here?
The Potency was inconclusive: 0.631 µM [inhibitor, full curve, poor fit].

With `Cc1c(Cl)ccc2c1NC(=O)[C@]21[C@@H]2C(=O)N(Cc3ccccc3)C(=O)[C@@H]2[C@@H]2CCCN21` as the molecule, how does the Potency read?
Its Potency is inconclusive: 25.1 µM [inhibitor, single point].

With `Cc1ccccc1N1CC(C(=O)Nc2ccc(S(=O)(=O)N3CCCCC3)cc2)CC1=O` (configuration not stated) as the molecule, how does the Potency read?
The Potency was inconclusive: 35.5 µM [inhibitor, single point].

For `CCOC(=O)c1c(C)[nH]c(CCC(=O)Nc2c(Cl)cc(OC)cc2OC)c1C`, which “activity, negative = inhibition” value is on record?
Its value is inactive: -8.91%.

Which Potency does the source give for `Cc1ccc(NC(=O)CN(C)CC(=O)Nc2ccc(F)c(Cl)c2)cc1` here?
The Potency was inconclusive: 35.5 µM [inhibitor, single point].

For `Nc1nc(=O)c2ccccc2s1`, which Potency is on record?
The Potency was inconclusive: 20 µM [inhibitor, partial curve, poor fit].

For `O=C(Nc1cccc(-c2cnc3ccccc3n2)c1)c1ccncc1`, which “activity, negative = inhibition” value is on record?
Its value is inactive: -1.05%.

Which Potency does the source give for `Cc1c(Cl)cccc1NC(=O)c1cccc(NC(=O)CCC(=O)O)c1` here?
The Potency was inconclusive: 3.16 µM [inhibitor, full curve, poor fit].

With `COC(=O)c1oc2ccc(OC)cc2c1N` as the molecule, how does the “activity, negative = inhibition” value read?
The value was inactive: 6.93%.

For `Cc1ccc(Cl)cc1-n1ncc2c(NC3CCCCC3)ncnc21`, which Potency is on record?
The Potency was inconclusive: 22.4 µM [inhibitor, single point].

With `O=C1c2cccc3cccc(c23)C(=O)N1CC1CCN(CC(O)COc2ccc3ccccc3c2)CC1` (configuration not stated) as the molecule, how does the Potency read?
Its Potency is inconclusive: 35.5 µM [inhibitor, single point].

With `O=C(CSc1nncn2c1cc1occc12)Nc1ccccc1C(F)(F)F` as the molecule, how does the Potency read?
The Potency was inconclusive: 17.8 µM [inhibitor, single point].

For `CCOC(=O)C1CCCN(S(=O)(=O)c2ccc3c(c2)CCN3C(=O)CC)C1` (configuration not stated), which Potency is on record?
Its Potency is inconclusive: 35.5 µM [inhibitor, single point].

Which “activity, negative = inhibition” value does the source give for `O=C(Nc1cccc(C(F)(F)F)c1)c1ccc(-c2ccc(F)c(F)c2)c2ccoc12` here?
The value was inactive: 12.8%.

For `Cc1cccc2cc(CN(Cc3ccc(F)cc3)C(=O)C(F)(F)F)c3nnnn3c12`, which “activity, negative = inhibition” value is on record?
The value was inactive: -7.27%.

For `Fc1ccc(Nc2nc(NCc3cccs3)nc3ccsc23)cc1`, which Potency is on record?
The Potency was inconclusive: 17.8 µM [inhibitor, single point].

Reference: PubChem BioAssay AID588855 (National Center for Advancing Translational Sciences (NCATS), 2011)
